# The supplement of paper PMC12217912
# The other results are listed elsewhere or left out. Sequences were assembled here from the parent chain. Inactive controls read about 0.05.
# B1: TEV protease; numbered along this chain (parent)
# chain: MGESLFKGPRDYNPISSSICHLTNESDGHTTSLYGIGFGPFIITNKHLFRRNNGTLVVQSLHGVFKVKDTTTLQQHLVDGRDMIIIRMPKDFPPFPQKLKFREPQREERICLVTTNFQTKSMSSMVSDTSCTFPSGDGIFWKHWIQTKDGQCGSPLVSTRDGFIVGIHSASNFTNTNNYFTSVPKNFMELLTNQEAQQWVSGWRLNADSVLWGGHKVFMVKPEEPFQPVKEATQL
# Variants of: B1
# Assay: raw area under fraction-flipped curve 0-4 h after induction (AUC4h, not background-subtracted), DNA-recorder readout of cleavage of the substrate (dimensionless); higher = more cleavage of the substrate by the protease variant
# Settings: temperature: 34 °C; time window: 0-4 h after rhamnose induction
# 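Note: Bxb1 expression induced with 0.2% (w/v) L-rhamnose at OD600 near 0.5, cultures sampled hourly, flipped fraction per protease–substrate barcode pair counted by paired-end Illumina sequencing.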
Variant,area with substrate ENLEFQS,area with substrate ENLIFQS,area with substrate ENLKFQS,area with substrate ENLMFQS,area with substrate ENLNFQS,area with substrate ENLPFQS,area with substrate ENLRFQS,area with substrate ENLFFQS,area with substrate ENLSFQS,area with substrate ENLVFQS
F173N,0.061,0.0657,0.0689,0.0586,0.0677,0.0604,0.0778,,,
L99F,,,0.067,,0.0706,0.0585,0.0629,0.0262,0.0601,0.0856
R160L,0.069,0.0776,0.0698,,,0.0579,,,0.0696,
K7L,0.0695,0.0695,0.0709,,0.0647,0.0617,,0.0801,0.0607,0.0678
V229T,0.121,,0.0877,,,0.0769,,,0.0726,
V113F,,,0.0921,,0.0508,,0.0738,0.0574,,
Q234A,,,0.112,0.0746,,0.0764,,0.0935,,
F6I,,,0.0538,,,,,,,
I139C,0.0709,,,0.0961,0.0608,,0.0875,0.0722,0.0587,
F140T,,,0.0657,,0.066,0.0527,,0.0988,,0.0685
P225Q,0.0852,,0.121,0.0599,0.0781,,0.0945,0.0816,0.096,
P225N,0.0544,0.0714,0.0732,0.0681,0.0492,0.0597,0.0756,0.0873,0.006,0.0897
P225E,,,,0.0766,,0.0638,,0.106,0.0742,
F101R,0.0488,0.0493,0.063,,0.0632,,0.0715,0.0528,,
S171A,,0.0701,,,0.0608,,0.0734,0.0693,,
K100C,0.0608,0.0844,0.0788,0.0601,0.0636,0.0581,,0.0875,0.0695,
D82A,,,,,0.0684,0.0773,0.0653,0.0787,,
T174Q,,,,,,0.0275,0.0758,0.0894,0.0671,
P228L,0.0562,0.0499,0.0678,,0.0565,,0.0805,0.0544,0.0625,
G138S,0.0634,,0.0839,,,,0.063,,,
K230Y,,,0.0758,0.0811,0.0635,0.0593,,0.102,0.0626,0.0967
F117A,0.11,0.108,0.0835,,0.0927,,,0.0802,0.066,
D79P,,,0.0433,,0.0509,0.0532,,,,0.0735

Variant,area with substrate ENLEFQS,area with substrate ENLIFQS,area with substrate ENLKFQS,area with substrate ENLMFQS,area with substrate ENLNFQS,area with substrate ENLPFQS,area with substrate ENLRFQS,area with substrate ENLFFQS,area with substrate ENLSFQS,area with substrate ENLVFQS
F133H,0.0724,,0.0866,0.0706,0.0617,0.0475,,,,0.092
G8Y,,0.0625,,,,,,,,
F226T,0.0683,,,,,0.0712,0.069,0.101,0.081,
Q75V,0.0542,0.115,0.0565,,,0.0635,,0.0701,,
Q197M,,,,,0.0723,,,,0.0751,
G37Y,0.0458,,,,,0.0462,0.066,0.0583,0.0548,
V217F,0.0641,,0.0746,0.0518,0.0439,,,,0.0609,
V58N,,,,,0.0561,,0.0533,0.0583,,0.0449
T70K,0.05,,0.0516,,,0.0739,,,0.0682,
H76V,0.0689,,0.0787,,,0.0533,,,0.0627,
H76K,,,,0.052,0.0479,,,0.0629,0.049,
L211W,,0.1,,,,,0.0714,,0.0861,
L211R,0.0139,,0.0535,,0.0828,0.0827,,,0.0548,0.0803
Q74Y,,,0.0725,0.0862,0.0824,0.0486,0.0603,,0.0709,
R87Y,,,0.0732,0.0559,0.0499,,,,,
I19A,,,0.0699,,0.0589,,0.0552,,0.0532,
D69K,0.0684,,0.0734,,0.0658,0.0867,0.0667,,0.0689,
K90N,,0.0634,0.0735,0.0851,0.0541,0.0654,0.0695,0.105,0.0669,
N206Y,0.0699,0.0678,,0.0688,0.0669,0.0384,,0.112,0.0589,
N175H,0.055,0.0881,,,,,0.0658,0.106,0.0525,
N178H,0.0497,0.0764,0.0879,,0.0689,,0.087,0.0963,0.0835,
N186G,,,,,,0.0698,,,0.0838,

# Same assay, conditions: temperature: 34 °C; time window: 0-4 h after rhamnose induction
Variant,area with substrate ENLHFQS,area with substrate ENLQFQS,area with substrate ENLDFQS,area with substrate ENLGFQS,area with substrate ENLWFQS,area with substrate ENLLFQS,area with substrate ENLTFQS
K7L,0.0559,,,,,,
V229T,0.071,0.0556,,,,,
Q234A,,,0.0578,,,,
F6I,0.0717,,,,,,
F140T,0.0551,,,,,,
P225Q,0.053,,,0.0583,0.0707,,
P225N,0.072,0.0854,0.0542,0.0657,0.0708,0.0849,
P225E,0.0735,,0.0565,,,0.0425,
F101R,,0.0406,,,0.0513,,
S171A,,,,,,0.121,
K100C,0.0661,0.0706,,,,0.076,0.0676
D82A,0.0272,,,,0.0619,,
T174Q,,,,,0.0607,0.0486,
P228L,,0.0465,0.0425,,,,
G138S,,0.0623,,,,,
K230Y,0.0761,0.0589,0.0772,,,,
F117A,0.0693,,,,0.0727,,
D79P,0.0678,0.062,,,,,
F133H,0.0639,0.0797,,0.0495,,0.0821,
Q75V,0.0673,0.0736,,,,0.0641,0.084

Variant,area with substrate ENLHFQS,area with substrate ENLQFQS,area with substrate ENLDFQS,area with substrate ENLGFQS,area with substrate ENLWFQS,area with substrate ENLLFQS,area with substrate ENLTFQS
C131V,,,,,0.0635,,
Q197M,0.0696,,,,0.0534,0.129,
G37Y,0.0442,0.0514,,0.063,0.086,,0.0649
V217F,,,,,0.0719,0.0559,
V58N,,,,,0.0335,,
T70K,,0.0684,,,,,
H76V,,,,,,,0.0731
H76K,0.0677,0.0591,,,,0.0788,
L211W,0.0795,,,0.0729,,0.0815,
L211R,0.0514,,,,,,
Q74Y,0.0651,,,,,,
R87Y,,0.0736,,,0.066,0.068,
I19A,0.0655,0.0767,,0.0679,0.079,0.0656,
D69K,,0.0792,,,,,
K90N,0.0689,0.0561,,,0.0659,,
N206Y,0.0648,,,0.0613,,0.0808,
N175H,,0.0548,,,,0.0591,
N178H,0.077,,,0.0573,,,
N186G,,,,,0.0684,0.056,
